Test results published in the supplement of paper PMC7125110.
± gives the standard error. Variants at the background level are over-represented here.

B1: glmS ribozyme (parent)
chain: AUAAAAGCGCCAGAACUACAGAAAUGUAGUUGACGAGGAGGAGGUUUAUCGAAUUUUCGGCGGAUGCCUCCAAA

Legend:
Conditions in all cases: with glucosamine-6-phosphate
glucosamine-6-phosphate [1] = variants of: B1; experiment: self-cleavage kobs at 640 uM GlcN6P; higher = faster cleavage; RNA array
Method in brief: (§1)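 Tiles of sequenced MiSeq chips were imaged over ~14 h at 37 °C. On them, barcoded ribozyme variants had been transcribed in situ by E. coli RNA polymerase and were tracked via a hybridised Cy3 probe while glucosamine-6-phosphate (40 μM to 10 mM) in HEPES/KCl/Mg(OAc)2 buffer flowed in. Per-tile medians, normalised to baseline and to non-cleaving reference variants, were fit to one- or two-exponential decays for kobs, and weighted Michaelis–Menten fits gave kcat and KM.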

glucosamine-6-phosphate [2] = variants of: B1; experiment: self-cleavage kobs at 160 uM GlcN6P; higher = faster cleavage; RNA array
Method in brief: as §1

glucosamine-6-phosphate [3] = variants of: B1; experiment: self-cleavage kobs at 2500 uM GlcN6P; higher = faster cleavage; RNA array
Method in brief: as §1

glucosamine-6-phosphate [4] = variants of: B1; experiment: self-cleavage kobs at 10000 uM GlcN6P; higher = faster cleavage; RNA array
Method in brief: as §1

Row | Variant | self-cleavage kobs at 640 uM GlcN6P (glucosamine-6-phosphate [1]) [s⁻¹] | self-cleavage kobs at 160 uM GlcN6P (glucosamine-6-phosphate [2]) [s⁻¹] | self-cleavage kobs at 2500 uM GlcN6P (glucosamine-6-phosphate [3]) [s⁻¹] | self-cleavage kobs at 10000 uM GlcN6P (glucosamine-6-phosphate [4]) [s⁻¹]
1 | A6U G41C U56G | < 1e-05 | < 1e-05 |  | 
2 | A6U G41U G51U | < 1e-05 | < 1e-05 | < 1e-05 | 
3 | A6U G43C | < 1e-05 | < 1e-05 |  | < 1e-05
4 | A6U G44U C68A | < 1e-05 | < 1e-05 | < 1e-05 | 
5 | A6U G44U G66U | < 1e-05 |  | < 1e-05 | 
6 | A6U G60A | < 1e-05 |  |  | 
7 | A6U G60U | < 1e-05 | < 1e-05 | < 1e-05 | 
8 | A6U G66A | 3.28e-05 ± 1.3e-05 |  | 9.12e-05 ± 1.4e-05 | 0.000155 ± 1.9e-05
9 | A6U U31A A36C G66C | < 1e-05 |  |  | 
10 | A6U U31C G35U A42C C68A C70U | < 1e-05 |  |  | 
11 | A6U U31G G40U A48C | < 1e-05 |  | < 1e-05 | 
12 | A6U U45G A48U U54G | < 1e-05 | < 1e-05 | < 1e-05 | 
13 | A6U U45G C67A | < 1e-05 | < 1e-05 |  | 
14 | A6U U54C C68G U69G | 0.00033 ± 9.7e-05 |  |  | 
15 | G7A A12U G60U C67U | < 1e-05 | < 1e-05 |  | 
16 | G7A A14G G29U C70G | < 1e-05 |  | < 1e-05 | 
17 | G7A A15C G66A | < 1e-05 | < 1e-05 | < 1e-05 | 
18 | G7A A15U U46C U49G | < 1e-05 |  |  | 
19 | G7A A36G G43A | < 1e-05 |  | < 1e-05 | 
20 | G7A A39U | < 1e-05 | < 1e-05 |  | 
21 | G7A A42U A48C C50A G60C G63U | < 1e-05 | < 1e-05 | < 1e-05 | < 1e-05
22 | G7A A42U U49A | < 1e-05 |  | < 1e-05 | < 1e-05

Row | Variant | self-cleavage kobs at 640 uM GlcN6P (glucosamine-6-phosphate [1]) [s⁻¹] | self-cleavage kobs at 160 uM GlcN6P (glucosamine-6-phosphate [2]) [s⁻¹] | self-cleavage kobs at 2500 uM GlcN6P (glucosamine-6-phosphate [3]) [s⁻¹] | self-cleavage kobs at 10000 uM GlcN6P (glucosamine-6-phosphate [4]) [s⁻¹]
23 | G7A A48C G66C | < 1e-05 | < 1e-05 | < 1e-05 | 
24 | G7A A53U C61U | < 1e-05 |  | < 1e-05 | 
25 | G7A C8A U65C | < 1e-05 |  | < 1e-05 | 
26 | G7A C8U C16A G43C G44U G63U C68U | < 1e-05 | < 1e-05 | < 1e-05 | 
27 | G7A C10A G38C U55A G59A G60A C61G U69A | < 1e-05 |  |  | 
28 | G7A C10A U31A A36G | < 1e-05 |  |  | 
29 | G7A C10G A36C G40C U56G G60A G66U | < 1e-05 |  |  | 
30 | G7A C10G U65C | < 1e-05 |  |  | 
31 | G7A C10U U30G | < 1e-05 |  |  | 
32 | G7A C11A G43C G59A | < 1e-05 | < 1e-05 | < 1e-05 | 
33 | G7A C16A U57G G63U A64U | < 1e-05 |  | < 1e-05 | < 1e-05
34 | G7A C16G G32U U55A G63A C71A | < 1e-05 |  |  | 
35 | G7A C16U C71A | < 1e-05 |  |  | 
36 | G7A C34U G43U U57C C71U | < 1e-05 |  |  | 
37 | G7A C61G | < 1e-05 | < 1e-05 | < 1e-05 | < 1e-05
38 | G7A C71A | < 1e-05 |  | < 1e-05 | 
39 | G7A G35U A36U | < 1e-05 | < 1e-05 |  | 
40 | G7A G35U G51C | < 1e-05 |  |  | < 1e-05
41 | G7A G37C | < 1e-05 | < 1e-05 |  | 
42 | G7A G38C G41U U47C | < 1e-05 |  | < 1e-05 | 
43 | G7A G40A A42C C67G | < 1e-05 |  | < 1e-05 | 
44 | G7A G43A | < 1e-05 | < 1e-05 | < 1e-05 | < 1e-05

Row | Variant | self-cleavage kobs at 640 uM GlcN6P (glucosamine-6-phosphate [1]) [s⁻¹] | self-cleavage kobs at 160 uM GlcN6P (glucosamine-6-phosphate [2]) [s⁻¹] | self-cleavage kobs at 2500 uM GlcN6P (glucosamine-6-phosphate [3]) [s⁻¹] | self-cleavage kobs at 10000 uM GlcN6P (glucosamine-6-phosphate [4]) [s⁻¹]
45 | G7A G44C C50U | < 1e-05 |  | < 1e-05 | 
46 | G7A U30G A48U U54C G66U | < 1e-05 |  |  | 
47 | G7A U31A A33G G44C U65A | < 1e-05 | < 1e-05 | < 1e-05 | 
48 | G7A U31C G41U G63U | < 1e-05 | < 1e-05 |  | 
49 | G7A U46A C61G G62A | < 1e-05 |  |  | 
50 | G7A U54A U57A U65A | < 1e-05 |  |  | 
51 | G7A U54C U65G C67U | < 1e-05 | < 1e-05 | < 1e-05 | 
52 | G7A U65C | < 1e-05 | < 1e-05 | < 1e-05 | < 1e-05
53 | G7C A12C G35U G37C G60C U65A | < 1e-05 | < 1e-05 |  | 
54 | G7C A12G U46G U47A | < 1e-05 |  |  | 
55 | G7C A12U C71A | < 1e-05 | < 1e-05 | < 1e-05 | 
56 | G7C A12U U45C | < 1e-05 | < 1e-05 |  | < 1e-05
57 | G7C A14G G41U A64G | < 1e-05 |  | < 1e-05 | 
58 | G7C A14U C16A G32A | < 1e-05 | < 1e-05 |  | 
59 | G7C A14U G29A G32A G66C | < 1e-05 |  |  | 
60 | G7C A15C A36G G38C A42C | < 1e-05 |  |  | 
61 | G7C A15G U30G | < 1e-05 |  |  | < 1e-05
62 | G7C A33U U45C | < 1e-05 |  |  | 
63 | G7C A36G A39G C67U | < 1e-05 | < 1e-05 | < 1e-05 | 
64 | G7C A36U | < 1e-05 | < 1e-05 |  | 
65 | G7C A39C G40C G44U | < 1e-05 |  |  | 
66 | G7C A42C U54A | < 1e-05 |  | < 1e-05 | 

Row | Variant | self-cleavage kobs at 640 uM GlcN6P (glucosamine-6-phosphate [1]) [s⁻¹] | self-cleavage kobs at 160 uM GlcN6P (glucosamine-6-phosphate [2]) [s⁻¹] | self-cleavage kobs at 2500 uM GlcN6P (glucosamine-6-phosphate [3]) [s⁻¹] | self-cleavage kobs at 10000 uM GlcN6P (glucosamine-6-phosphate [4]) [s⁻¹]
67 | G7C A42U A48C G62U | < 1e-05 |  |  | 
68 | G7C A52U A53G | < 1e-05 |  | < 1e-05 | 
69 | G7C A53U | < 1e-05 | < 1e-05 | < 1e-05 | < 1e-05
70 | G7C C8U U45G | < 1e-05 |  | < 1e-05 | 
71 | G7C C10A C71A | < 1e-05 |  |  | 
72 | G7C C11A A36G | < 1e-05 |  | < 1e-05 | < 1e-05
73 | G7C C16A U31A U65G | < 1e-05 | < 1e-05 | < 1e-05 | 
74 | G7C C16U | < 1e-05 | < 1e-05 | < 1e-05 | < 1e-05
75 | G7C C50U G63A U65C | < 1e-05 |  |  | 
76 | G7C C67A | < 1e-05 | < 1e-05 | < 1e-05 | < 1e-05
77 | G7C G9U C10U A39G G44A | < 1e-05 | < 1e-05 |  | 
78 | G7C G13U A15U | < 1e-05 | < 1e-05 |  | 
79 | G7C G13U A15U G43U U55A C68U | < 1e-05 |  | < 1e-05 | 
80 | G7C G26U G37C | < 1e-05 |  |  | 
81 | G7C G29C U30C A39C G51U C70G | < 1e-05 |  |  | 
82 | G7C G32A A39C G44A U46A G63C C71G | < 1e-05 |  | < 1e-05 | 
83 | G7C G32A G41U | < 1e-05 | < 1e-05 |  | 
84 | G7C G38U A53G U54G | < 1e-05 | < 1e-05 |  | 
85 | G7C G41A U47C | < 1e-05 |  |  | 
86 | G7C G43A | < 1e-05 | < 1e-05 | < 1e-05 | < 1e-05
87 | G7C G43C G59C C71G | < 1e-05 | < 1e-05 | < 1e-05 | 
88 | G7C G44U C61U C70G | < 1e-05 |  | < 1e-05 | 

Row | Variant | self-cleavage kobs at 640 uM GlcN6P (glucosamine-6-phosphate [1]) [s⁻¹] | self-cleavage kobs at 160 uM GlcN6P (glucosamine-6-phosphate [2]) [s⁻¹] | self-cleavage kobs at 2500 uM GlcN6P (glucosamine-6-phosphate [3]) [s⁻¹] | self-cleavage kobs at 10000 uM GlcN6P (glucosamine-6-phosphate [4]) [s⁻¹]
89 | G7C G62U C68U | < 1e-05 | < 1e-05 |  | 
90 | G7C U30G C61A | < 1e-05 |  |  | 
91 | G7C U45A | < 1e-05 | < 1e-05 | < 1e-05 | < 1e-05
92 | G7C U45A C70U | < 1e-05 | < 1e-05 |  | 
93 | G7C U46G | < 1e-05 | < 1e-05 | < 1e-05 | < 1e-05
94 | G7C U47A | < 1e-05 | < 1e-05 |  | < 1e-05
95 | G7C U49A A52C G62A U69A | < 1e-05 |  |  | 
96 | G7C U56A | < 1e-05 | < 1e-05 | < 1e-05 | < 1e-05
97 | G7C U65C | < 1e-05 |  | < 1e-05 | 
98 | G7C U69C | < 1e-05 | < 1e-05 | < 1e-05 | < 1e-05
99 | G7U A12U A15G | < 1e-05 |  | < 1e-05 | 
100 | G7U A12U G41U G51A | < 1e-05 | < 1e-05 | < 1e-05 | 
101 | G7U A15C U65G | < 1e-05 |  |  | 
102 | G7U A15U G43C | < 1e-05 |  | < 1e-05 | < 1e-05
103 | G7U A15U U47G | < 1e-05 |  |  | 
104 | G7U A15U U49C A52C | < 1e-05 |  | < 1e-05 | < 1e-05
105 | G7U A33C A36C | < 1e-05 |  | < 1e-05 | 
106 | G7U A33G U54C | < 1e-05 |  |  | 
107 | G7U A33U G35A | < 1e-05 |  | < 1e-05 | 
108 | G7U A36C C50A | < 1e-05 |  | < 1e-05 | 
109 | G7U A52C C68U | < 1e-05 |  | < 1e-05 | 
110 | G7U C8A G13C C16U | < 1e-05 |  |  | 
